Results: PubChem BioAssay AID1671194 (National Center for Advancing Translational Sciences (NCATS), 2021)
“And” between values parts separate entries of the source, which are not always exact repeats. Equal values may be shown once. Among all 140,000 compounds or so, about 240 (0.17%) were called active. Inconclusive results, whose numbers are uncertain, are shown with a selection of clear calls. Calls come from the whole dose curve; as a rule, active = well fitted inhibition curve with a large enough effect; inconclusive = small, poorly fitted or top-dose-only effect; inactive = no such curve, though single readings can be large or run the other way. Potencies of inconclusive entries are doubtful fits and often do not repeat. Where a structure was tested more than once in an assay, its records may differ in their call.

Assay: Primary qHTS assay for inhibitors of alpha-synuclein gene (SNCA) expression; note: nearly all actives have a fitted effect of over 45% in size;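 for activity change, negative = inhibition: plate controls were DMSO cells for no effect and cell-free wells for full effect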
Conditions: HEK-293 SNCA-luciferase knock-in, luminescence, 24 h; activity change, negative = inhibition: at 57.2 µM (top of the series) unless noted
Potency is the fitted concentration of half-maximal effect; tags give direction and shape of the fitted curve.

| SMILES | activity change, negative = inhibition | Potency |
| --- | --- | --- |
| O=C1CN(C(=O)COc2ccc(Cl)cc2)C(c2ccc(F)cc2)c2cc(Cl)ccc2N1 (stereo unspecified) | inactive: -20.4% |  |
| Cc1cccc(CNc2ncncc2-c2nc(-c3ccccc3)no2)c1 | inactive: 5.45% |  |
| Cc1ccc(NC(=O)C2(CCO)CCN(c3ncccn3)C2)cc1 (stereo unspecified) |  | inconclusive: 39.8 µM [inhibitor, single point] |
| C#CCNC(=O)c1cc(-c2cccc(C(F)(F)F)c2)c2cccn2n1 | inactive: 1.03% [at 87.6 µM] |  |
| O=C(c1ccc(-c2ncc3cnc(-c4cccc(F)c4)cn23)cc1)N1CCc2cccnc21 |  | active: 28.2 µM |
| CCOC(=O)c1ccccc1NC(=O)N1CC(C)Oc2ccc(C)cc21 (stereo unspecified) |  | inconclusive: 7.08 µM [inhibitor, partial curve, poor fit] |
| CC(C)CC(=O)Nc1n[nH]c2c1CN(C(=O)C1CCN(C)CC1)C2(C)C |  | active: 0.541 µM |
| CC(C)NC(=O)N1C2CCC1CN(c1ccc(C(F)(F)F)cc1)C2 |  | inconclusive: 39.8 µM [inhibitor, partial curve, poor fit] |
| CCC(CC)C(=O)N1CCC2(CC1)CC(N(Cc1ccc(F)cc1)C1CC1)CCO2 (stereo unspecified) | inactive: -27.4% |  |
| O=C(c1ccccc1)N1CCC2(CC1)C(=O)NN=C2c1ccncc1 |  | inconclusive: 15.8 µM [inhibitor, single point] |
| Cc1ccc(-c2nnc(Nc3ccc(O)cc3)c3ccccc23)cc1S(=O)(=O)N1CCCCC1 |  | inconclusive: 25.1 µM [inhibitor, single point] |
| COc1ccc2cc(CNc3ccc(C)cc3)c(=O)n(CC(=O)Nc3cccc(C(F)(F)F)c3)c2c1 |  | inconclusive: 39.8 µM [inhibitor, single point] |
| Cc1cc(C)n(CCC(=O)NCC2Cn3cccc3C(=O)N2Cc2ccccc2)n1 (stereo unspecified) | inactive: 9.01% |  |
| CCN1C(=O)CCC2(C(=O)NCc3cccc(F)c3)CCCC=C12 (stereo unspecified) |  | inconclusive: 0.631 µM [inhibitor, full curve, poor fit] |
| COCCN(C)C[C@@H]1CN(C(=O)c2cc(F)cc(C#N)c2)C[C@@H]1CO |  | inconclusive: 22.4 µM [inhibitor, single point] |
| CCc1ccc(CNC(=O)c2ccc3c(c2)N(CC)C2CCCCCN2C3=O)cc1 (stereo unspecified) |  | inconclusive: 39.8 µM [inhibitor, single point] |
| O=C(NCCc1cnc[nH]1)c1ccc2nc(-c3ccc(F)cc3)cn2c1 | inactive: 47.2% |  |
| CC(=O)Nc1ccccc1-c1c(C)nn2c1N(Cc1ccccc1)CCC2 | inactive: 3.28% [at 87.6 µM] |  |
| CN(CC(O)COc1cccc(CNCCc2ccc(F)cc2)c1)C1CCCCC1 (stereo unspecified) | inactive: 0.757% |  |
| O=C1CC(NS(=O)(=O)N2CCCC2)CN1Cc1ccc(F)cc1 (stereo unspecified) |  | inconclusive: 39.8 µM [inhibitor, single point] |
| O=C(NCC(F)(F)F)[C@@H]1CCCN1c1nccc(Nc2ccccc2Cl)n1 |  | inconclusive: 39.8 µM [inhibitor, single point] |
| COc1ccc(-c2cc(N3CCCC(NC(=O)c4cccs4)C3)n[nH]2)cc1 (stereo unspecified) | inactive: 88.9% |  |
| COc1ccc2c(c1)c1c(c(=O)n(-c3cccc(C)c3)c(=O)n1CC(=O)NCC1CCCO1)n2C (stereo unspecified) |  | inconclusive: 2.82 µM [inhibitor, single point] |

| SMILES | activity change, negative = inhibition | Potency |
| --- | --- | --- |
| Cc1nn(Cc2ccccc2)c(C)c1[C@@H]1C=C[C@@H](NS(=O)(=O)c2ccccc2)C1 |  | inconclusive: 20 µM [inhibitor, partial curve, poor fit] |
| CCOc1ccccc1C(=O)Nc1ccc(S(=O)(=O)Nc2ncccn2)cc1 | inactive: 14.6% |  |
| O=C1COc2ccc(NCc3cccs3)nc2CN1Cc1ccc(C(F)(F)F)cc1 |  | inconclusive: 28.2 µM [inhibitor, single point] |
| NC(=O)c1nc(CNC(=O)[C@H]2CCC[C@H](O)C2)no1 | inactive: -9.35% |  |
| COCCCNC(=O)c1ccc2c(c1)n(Cc1ccccc1)c(=O)c1ccnn12 | inactive: -2.38% |  |
| O=C(NC1CCN(c2cc(-c3ccccc3)[nH]n2)CC1)c1cccc(F)c1 | inactive: 61.2% |  |
| O=C(COc1ccccc1)N[C@H]1[C@H](O)[C@H](O)C[C@@H]1c1ccc(N2CCOCC2)nc1 | inactive: 6.25% [at 87.6 µM] |  |
| O=C(CSC1=Nc2ccccc2N=C(c2ccc(F)cc2)C1)Nc1ccc(Cl)cc1 |  | inconclusive: 3.16 µM [inhibitor, full curve] |
| COc1ccc(S(=O)(=O)NCCc2sc3nc(-c4ccc(C)cc4)nn3c2C)cc1F |  | inconclusive: 8.91 µM [inhibitor, partial curve] |
| Cc1cc(C)cc(-c2ccc(CN3CCCC3C(=O)NCc3ccc(F)cc3)cc2)c1 (stereo unspecified) | inactive: -16.4% |  |
| Nc1nc(F)nc2c1ncn2[C@@H]1O[C@H](CO)[C@@H](O)[C@@H]1O |  | inactive and active: 8.57 µM |
| CCOc1ccc(CNC(=O)c2cnc3sc(N(CC)CC)nn3c2=O)cc1 |  | inconclusive: 17.8 µM [inhibitor, single point] |
| O=C(CCC1CCCN(S(=O)(=O)c2ccc(F)cc2)C1)NCCN1CCOCC1 (stereo unspecified) |  | inconclusive: 39.8 µM [inhibitor, single point] |
| COC[C@@H]1CN(c2cnccn2)C[C@H]1C(=O)NCCc1ccncc1 | inactive: -5.53% |  |
| CC1(C)C(=O)N(CC2CCOCC2)[C@H]2CN(Cc3cccs3)C[C@@H]2[S+]1(=O)[O-] |  | inconclusive: 28.2 µM [inhibitor, partial curve, poor fit] |
| CC(=O)N(C1CCOCC1)C1CCN(S(=O)(=O)c2ccc(Br)cc2)CC1 |  | inconclusive: 3.16 µM [inhibitor, single point] |
| CCOc1ccc(NC(=O)N2CCc3nc(-c4ccccc4)[nH]c3C2)cc1 | inactive: 27.6% |  |
| CN1CCN(C(CN)C2CCCCC2)CC1 (stereo unspecified) | inactive: 10.8% [at 87.6 µM] |  |
| O=C(Cc1c[nH]c2ccccc12)NCC(=O)N1CCCCCNC(=O)CC1c1ccccc1 (stereo unspecified) | inactive: 24.7% |  |
| CCOc1ccc(CCNC(=O)c2cccc(-n3c(C)nc4cccnc43)c2C)cc1 |  | inconclusive: 39.8 µM [inhibitor, single point] |
| CCc1ccccc1NC(=O)C(CC)Oc1ccccc1-c1nnc(-c2ccccc2)o1 (stereo unspecified) |  | active: 8.91 µM |
| O=C1NC2(CCCN(Cc3ccccc3C(F)(F)F)C2)Oc2ccccc21 (stereo unspecified) | inactive: -25.3% |  |
| CCCCN(Cc1ccccc1)S(=O)(=O)c1cc(Br)cc2c1N(C(C)=O)CC2 | inactive: 24.2% |  |
